The other results are listed elsewhere or left out. Values come from read counts of a selection and are noisy.
T1: CLTC_Clathrin-propeller__Q00610_1_364
T1 chain: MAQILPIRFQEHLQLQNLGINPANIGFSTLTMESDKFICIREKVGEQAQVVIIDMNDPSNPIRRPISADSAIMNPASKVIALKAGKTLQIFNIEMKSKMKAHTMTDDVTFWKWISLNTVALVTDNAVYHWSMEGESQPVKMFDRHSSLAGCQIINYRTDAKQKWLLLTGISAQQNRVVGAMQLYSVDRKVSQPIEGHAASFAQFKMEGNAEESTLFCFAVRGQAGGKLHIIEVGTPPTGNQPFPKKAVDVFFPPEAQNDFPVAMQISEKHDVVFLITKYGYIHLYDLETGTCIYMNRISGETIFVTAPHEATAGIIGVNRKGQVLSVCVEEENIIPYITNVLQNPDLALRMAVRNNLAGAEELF

T2: CSK21_Pkinase__P68400_1_335
T2 chain: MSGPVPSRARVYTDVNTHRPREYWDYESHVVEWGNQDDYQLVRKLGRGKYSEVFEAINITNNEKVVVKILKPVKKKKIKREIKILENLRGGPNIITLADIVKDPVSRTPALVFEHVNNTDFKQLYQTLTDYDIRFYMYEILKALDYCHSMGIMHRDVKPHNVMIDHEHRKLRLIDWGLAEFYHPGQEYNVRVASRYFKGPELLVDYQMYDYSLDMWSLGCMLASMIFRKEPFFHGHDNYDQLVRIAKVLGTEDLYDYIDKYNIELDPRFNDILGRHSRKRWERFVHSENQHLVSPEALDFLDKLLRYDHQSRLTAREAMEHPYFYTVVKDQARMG

T3: EPHB2_Pkinase__P29323_604_898
T3 chain: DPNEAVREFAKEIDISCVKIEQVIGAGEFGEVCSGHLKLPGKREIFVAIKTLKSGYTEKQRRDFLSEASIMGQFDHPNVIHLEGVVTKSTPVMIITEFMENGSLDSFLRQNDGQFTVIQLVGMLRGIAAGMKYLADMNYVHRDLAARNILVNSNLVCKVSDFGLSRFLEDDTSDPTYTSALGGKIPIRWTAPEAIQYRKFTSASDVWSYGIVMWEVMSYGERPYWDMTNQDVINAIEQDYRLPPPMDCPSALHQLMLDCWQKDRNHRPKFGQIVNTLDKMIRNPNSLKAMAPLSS

T4: EPHA3_Pkinase__P29320_606_947
T4 chain: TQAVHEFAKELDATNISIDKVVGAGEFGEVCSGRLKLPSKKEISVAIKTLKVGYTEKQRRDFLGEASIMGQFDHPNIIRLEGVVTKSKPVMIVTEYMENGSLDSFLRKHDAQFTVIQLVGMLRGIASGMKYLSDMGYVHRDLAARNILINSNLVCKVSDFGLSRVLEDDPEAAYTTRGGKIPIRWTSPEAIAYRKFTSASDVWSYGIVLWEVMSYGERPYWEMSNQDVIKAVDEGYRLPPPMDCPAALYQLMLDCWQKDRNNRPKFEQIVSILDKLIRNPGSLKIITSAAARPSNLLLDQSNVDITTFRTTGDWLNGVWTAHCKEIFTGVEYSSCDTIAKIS

B1: LDLRAP1 207-222 wt (peptide)
chain: VATGNLLDLEETAKAP
B2: LDLRAP1 211-226 wt (peptide)
chain: NLLDLEETAKAPLSTV
B3: NAV3 1625-1640 mut Q8IVL0.I1634T (peptide)
chain: SELIELRETTEMLKAQ
B4: BCL11A 40-55 mut Q9H165.C48F (peptide)
chain: EGDHDLLTFGQAQMNF
B5: KMT2A 2845-2860 mut Q03164.L2854Q (peptide)
chain: LPSDIMDFVQKNTPSM
B6: CIC 1468-1483 mut Q96RK0.R1471W (peptide)
chain: DQRWALVMQLFQDHGF
B7: MYH11 617-632 mut P35749.R624H (peptide)
chain: DLWKDVDHIVGLDQMA
B8: KMT2A 2845-2860 wt (peptide)
chain: LPSDIMDFVLKNTPSM
B9: UNC13D 76-91 mut Q70J99.T76M (peptide)
chain: MEASELLRYLQEAFHV
B10: RBM10 749-764 mut P98175.C764F (peptide)
chain: REEKLTDWQKLAALLF
B11: CAPN3 279-294 mut P20807.R289W (peptide)
chain: SGLNMGELIAWMVRNM
B12: SMN1 255-270 wt (peptide)
chain: DDADALGSMLISWYMS
B13: UNC13D 76-91 wt (peptide)
chain: TEASELLRYLQEAFHV
B14: GJA8 275-290 mut P48165.S276F (peptide)
chain: VFHYFPLTEVGMVETS
B15: ROM1 287-302 mut Q03395.R287W (peptide)
chain: WYLQTALEGLGGVIDA
B16: ZNF469 2967-2982 mut Q96JG9.G2971V (peptide)
chain: AAWRVLEMPAPADDSS
B17: AKAP9 3547-3562 mut Q99996.I3558V (peptide)
chain: FIWVQENIDEIVLQLQ
B18: CHD2 1351-1366 mut O14647.P1353L (peptide)
chain: KVLRLKEEHGIELSSP
B19: NPC1 719-734 mut O15118.S734I (peptide)
chain: TLDQQLGRVLGEVAPI
B20: PEX1 964-979 wt (peptide)
chain: LLTQLDGVEGLQGVYV
B21: LDLR 1-16 mut P01130.L15P (peptide)
chain: MGPWGWKLRWTVALPL
B22: KRT1 335-350 mut P04264.D340V (peptide)
chain: VILSMVNNRSLDLDSI
B23: STAT3 621-636 wt (peptide)
chain: FTWVEKDISGKTQIQS
B24: KRT77 335-350 mut P04264.D340V (peptide)
chain: VILSMVNNRSLDLDSI
B25: LDLR 1-16 mut P01130.L16P (peptide)
chain: MGPWGWKLRWTVALLP

Molecular target: T1, CLTC_Clathrin-propeller__Q00610_1_364
Test: mean normalised NGS count of phage-displayed peptide after selection on bait (% of reads); baits are purified protein domains named by gene / domain / UniProt id / residues; peptides come from disordered regions of human proteins; higher = stronger enrichment / binding
Conditions: replicate selections in which the peptide was seen: 6

Row | Binder | mean normalised NGS count
1 | B1 | 0.0203
2 | B2 | 0.0228
3 | B3 | 0.0528
4 | B4 | 0.0171

Molecular target: CREBBP_KIX__Q92793_587_673
Test: as above
Conditions: replicate selections in which the peptide was seen: 4

Row | Binder | mean normalised NGS count
5 | B5 | 0.48
6 | B6 | 0.509

Same assay, conditions: replicate selections in which the peptide was seen: 5

Row | Binder | mean normalised NGS count
7 | B7 | 0.117

Same assay, conditions: replicate selections in which the peptide was seen: 6

Row | Binder | mean normalised NGS count
8 | B8 | 28.3
9 | B9 | 68.7

Molecular target: CREBBP_NCBD__Q92793_2062_2109
Test: as above
Conditions: replicate selections in which the peptide was seen: 5

Row | Binder | mean normalised NGS count
10 | B9 | 91.8
11 | B13 | 1.46

Same assay, conditions: replicate selections in which the peptide was seen: 2

Row | Binder | mean normalised NGS count
12 | B10 | 0.138

Same assay, conditions: replicate selections in which the peptide was seen: 3

Row | Binder | mean normalised NGS count
13 | B11 | 2.16
14 | B12 | 2.7

Molecular target: MDM2_p53-binding-domain__Q00987_17_125
Test: as above
Conditions: replicate selections in which the peptide was seen: 2

Row | Binder | mean normalised NGS count
15 | B13 | 4.41

Molecular target: T2, CSK21_Pkinase__P68400_1_335
Test: as above
Conditions: replicate selections in which the peptide was seen: 2

Row | Binder | mean normalised NGS count
16 | B14 | 0.0848
17 | B15 | 0.317
18 | B16 | 0.12
19 | B17 | 6.5

Molecular target: T3, EPHB2_Pkinase__P29323_604_898
Test: as above
Conditions: replicate selections in which the peptide was seen: 3

Row | Binder | mean normalised NGS count
20 | B15 | 0.204

Molecular target: T4, EPHA3_Pkinase__P29320_606_947
Test: as above
Conditions: replicate selections in which the peptide was seen: 3

Row | Binder | mean normalised NGS count
21 | B16 | 0.0629

Molecular target: T2, CSK21_Pkinase__P68400_1_335
Test: as above
Conditions: replicate selections in which the peptide was seen: 3

Row | Binder | mean normalised NGS count
22 | B18 | 0.273
23 | B19 | 0.174
24 | B20 | 0.226
25 | B21 | 0.0423
26 | B22 | 0.478
27 | B23 | 4.55
28 | B24 | 0.478

Molecular target: MK08_Pkinase__P45983_1_363
Sequence (chain, as listed by the source): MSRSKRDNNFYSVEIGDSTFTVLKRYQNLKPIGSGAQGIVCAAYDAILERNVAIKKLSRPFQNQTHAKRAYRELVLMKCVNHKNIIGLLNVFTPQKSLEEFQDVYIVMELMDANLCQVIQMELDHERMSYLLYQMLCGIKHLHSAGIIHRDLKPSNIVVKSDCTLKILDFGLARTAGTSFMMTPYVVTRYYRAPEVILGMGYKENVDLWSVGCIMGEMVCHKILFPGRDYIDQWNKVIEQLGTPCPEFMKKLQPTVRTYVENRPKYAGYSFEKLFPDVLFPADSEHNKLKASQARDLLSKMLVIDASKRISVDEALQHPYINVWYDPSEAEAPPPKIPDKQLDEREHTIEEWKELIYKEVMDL
Test: as above
Conditions: replicate selections in which the peptide was seen: 4

Row | Binder | mean normalised NGS count
29 | B20 | 0.152

Molecular target: T3, EPHB2_Pkinase__P29323_604_898
Test: as above
Conditions: replicate selections in which the peptide was seen: 2

Row | Binder | mean normalised NGS count
30 | B21 | 0.106

Molecular target: MK08_Pkinase__P45983_1_363
Test: as above
Conditions: replicate selections in which the peptide was seen: 2

Row | Binder | mean normalised NGS count
31 | B22 | 0.0913
32 | B24 | 0.0913

Molecular target: T2, CSK21_Pkinase__P68400_1_335
Test: as above
Conditions: replicate selections in which the peptide was seen: 4

Row | Binder | mean normalised NGS count
33 | B25 | 0.0371

— the supplement of paper PMC11369174, “Proteome-scale characterisation of motif-based interactome rewiring by disease mutations” (Molecular Systems Biology, 2024)
